For the assay, the target named is T1, Mdb1 pS216, pT218 fluorescein-labelled phosphopeptide (SDT site) (S. pombe).
T1 sequence (peptide, fluorescein on the N-terminus; phosphoserine at 216; phosphothreonine at 218): GYGVEGDHSSDTEEEVVS
The experiment in a line: fluorescence polarisation; fluorescein-labelled peptide at 200 nM, increasing concentrations of recombinant protein; room temperature; 25 mM HEPES pH 7.5, 150 mM NaCl, 1 mM EDTA, 0.25 mM TCEP, 0.02% Tween-20; one site-specific binding model; both purified. Background: Polarisation of emitted light reports the rotation of a fluorescent probe.

No constants are given. Whether binding was seen depends on the method and setting. Some binding calls cover weakened binding; strength is not graded here.

B1: S. pombe Nbs1 (protein, UniProt O43070 1-613)
chain: MWIIEAEGDILKGKSRILFPGTYIVGRNVSDDSSHIQVISKSISKRHARFTILTPSEKDYFTGGPCEFEVKDLDTKFGTKVNEKVVGQNGDSYKEKDLKIQLGKCPFTINAYWRSMCIQFDNPEMLSQWASNLNLLGIPTGLRDSDATTHFVMNRQAGSSITVGTMYAFLKKTVIIDDSYLQYLSTVKESVIEDASLMPDALECFKNIIKNNDQFPSSPEDCINSLEGFSCAMLNTSSESHHLLELLGLRISTFMSLGDIDKELISKTDFVVLNNAVYDSEKISFPEGIFCLTIEQLWKIIIERNSRELISKEIERLKYATASNSTPQKIIQPQRHIQKNIVDDLFSVKKPLPCSPKSKRVKTLENLSIMDFVQPKQMFGKEPEGYLSNQSNNGSAQNKKSGDNSEKTKNSLKSSSKKSANTGSGQGKTKVEYVSYNSVDKGNSSPFKPLELNVVGEKKANAEVDSLPSENVQESEDDKAFEENRRLRNLGSVEYIRIMSSEKSNANSRHTSKYYSGRKNFKKFQKKASQKAPLQAFLSLSEHKKTEVFDQDDTDLEPVPRLMSKVESIPAGASSDKSGKSSISKKSSNSFKELSPKTNNDEDDEFNDLKFHF
Turning to B1, the binding entry was “binds”.

These data come from paper PMC6175577, “BRCT domains of the DNA damage checkpoint proteins TOPBP1/Rad4 display distinct specificities for phosphopeptide ligands” (eLife, 2018).
